# Results as given in PubChem BioAssay (Tox21).
# “And” between values parts separate entries of the source, which are not always exact repeats. Identical values can stand only once. The shares of active, inactive and inconclusive entries below differ from those in the screen. Potencies of inconclusive entries are doubtful fits and often do not repeat. The source holds several records for some structures; these can differ, active in one and inactive in another. The source made the active and inactive calls. Unless noted, calls follow the shape of the dose curve; as a rule, active = well fitted curve in the direction sought with a large enough effect in the repeat runs; inconclusive = weak or mixed curves; inactive = no such curve, though single readings can be large; an effect the other way counts as inactive or inconclusive.
# What was measured:
# [1] = biological target: Estrogen receptor (Homo sapiens) (UniProt P03372); test: qHTS assay to identify small molecule antagonists of the estrogen receptor alpha (ER-alpha) signaling pathway using the BG1 cell line in the presence of 0.1 nM 17-beta-estradiol (AID 1259244); also: nearly all actives have a fitted effect of over 50% in size
# Chain of UniProt P03372 (P03372 whole entry, looked up): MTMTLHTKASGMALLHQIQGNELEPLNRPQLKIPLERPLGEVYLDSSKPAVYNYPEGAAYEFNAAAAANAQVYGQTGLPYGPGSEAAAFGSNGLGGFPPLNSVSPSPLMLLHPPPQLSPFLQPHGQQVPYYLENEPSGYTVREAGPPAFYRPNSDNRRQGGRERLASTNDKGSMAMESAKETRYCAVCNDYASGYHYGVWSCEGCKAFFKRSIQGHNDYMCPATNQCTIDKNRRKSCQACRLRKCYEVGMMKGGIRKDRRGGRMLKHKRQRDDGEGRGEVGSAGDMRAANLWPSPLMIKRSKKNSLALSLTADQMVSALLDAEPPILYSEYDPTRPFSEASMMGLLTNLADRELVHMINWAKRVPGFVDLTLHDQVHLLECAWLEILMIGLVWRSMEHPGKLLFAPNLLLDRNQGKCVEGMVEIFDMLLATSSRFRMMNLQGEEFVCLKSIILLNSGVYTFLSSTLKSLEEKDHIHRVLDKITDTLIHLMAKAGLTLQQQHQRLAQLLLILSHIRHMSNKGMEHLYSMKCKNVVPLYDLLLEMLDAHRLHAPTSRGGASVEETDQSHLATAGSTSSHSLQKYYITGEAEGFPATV
# Outline: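 VM7Luc4E2 cells (endogenous full-length ER-alpha, 4×ERE-luciferase), kept 5 days in phenol red-free, charcoal-stripped FBS medium; 4,000 cells/well. Compounds added with 0.1 nM (final) 17beta-estradiol, 22 hr at 37C; luminescence read with ONE-Glo after 30 min.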
# [2] = qHTS assay to identify small molecule agonists of the sonic hedgehog signaling (Shh) pathway (AID 1259368; calls by dose curve; also: nearly all actives have a fitted effect of over 15% in size)
# Outline: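 NIH/3T3-derived 3T3Gli1-Luc cells with stably integrated Gli1-driven firefly luciferase, 2,000 cells/well, compounds added after 4 hr. Incubated 24 hr at 37C, 5% CO2; luminescence read after 30 min with luciferase reagent at room temperature.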
# [3] = qHTS assay to identify small molecule HDAC inhibitors - cell viability counter screen (AID 1259365); also: nearly all actives have a fitted effect of over 50% in size
# Outline: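 Viability readout: CellTiter-Glo luminescence. Wild-type HCT-116 cells, 2hr compound treatment following overnight attachment at 37 C.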
# [4] = biological target: Androgen receptor (Homo sapiens) (UniProt P10275); test: qHTS assay to identify small molecule antagonists of the androgen receptor (AR) signaling pathway using the MDA cell line in the presence of 0.5 nM R1881 (AID 1259243); also: nearly all actives have a fitted effect of over 50% in size
# Chain of UniProt P10275 (P10275 whole entry, looked up): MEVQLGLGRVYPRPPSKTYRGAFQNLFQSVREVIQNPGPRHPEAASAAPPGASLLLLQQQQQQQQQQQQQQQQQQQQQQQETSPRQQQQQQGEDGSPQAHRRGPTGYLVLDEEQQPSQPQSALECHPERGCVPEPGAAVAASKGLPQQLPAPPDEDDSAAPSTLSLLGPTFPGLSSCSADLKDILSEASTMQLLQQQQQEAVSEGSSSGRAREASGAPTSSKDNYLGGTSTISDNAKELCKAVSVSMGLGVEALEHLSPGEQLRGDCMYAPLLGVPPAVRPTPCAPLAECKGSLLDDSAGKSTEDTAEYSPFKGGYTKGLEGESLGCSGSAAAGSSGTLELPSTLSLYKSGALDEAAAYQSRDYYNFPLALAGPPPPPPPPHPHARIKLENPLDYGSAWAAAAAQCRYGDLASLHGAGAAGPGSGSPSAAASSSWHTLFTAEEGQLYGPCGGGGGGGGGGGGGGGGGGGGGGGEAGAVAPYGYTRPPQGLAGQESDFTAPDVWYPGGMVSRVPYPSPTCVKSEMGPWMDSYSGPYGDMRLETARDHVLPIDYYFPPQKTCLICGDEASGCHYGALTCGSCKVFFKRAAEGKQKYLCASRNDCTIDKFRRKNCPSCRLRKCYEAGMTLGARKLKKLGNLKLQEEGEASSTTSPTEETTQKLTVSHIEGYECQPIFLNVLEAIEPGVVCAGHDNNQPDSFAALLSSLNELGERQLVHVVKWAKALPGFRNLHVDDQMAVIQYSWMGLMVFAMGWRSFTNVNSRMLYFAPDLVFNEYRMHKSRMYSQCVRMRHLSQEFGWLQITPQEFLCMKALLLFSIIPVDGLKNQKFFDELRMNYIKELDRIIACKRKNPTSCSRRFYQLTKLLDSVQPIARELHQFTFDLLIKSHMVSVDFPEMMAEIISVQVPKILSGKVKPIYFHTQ
# Outline: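 MDA-kb2 cells (MMTV-luciferase, responsive to AR and GR) at 3,000/well, rested 5 h at 37C, 0% CO2, then given compounds plus 0.5 nM R1881 (final) for 16 hr. Luciferase read with ONE-Glo after 30 min at room temperature.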
# [5] = qHTS assay to identify small molecule HDAC inhibitors (AID 1259364); also: nearly all actives have a fitted effect of over 45% in size
# Outline: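 Wild-type HCT-116 cells, plated overnight at 37 C, exposed to compounds 2 hr at 37 C; luminogenic HDAC-Glo substrate then added 30 min at room temperature. Luminescence reports relative endogenous class I/II HDAC activity.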
# [6] = qHTS assay to identify small molecule antagonists of the sonic hedgehog signaling (Shh) pathway - cell viability counter screen (AID 1259367); also: nearly all actives have a fitted effect of over 55% in size
# Outline: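 Cells: 3T3 Gli1-Luc, 2,000/well, 4 hr pre-incubation. Compounds in DMSO, then conditioned medium. Incubation 24 hr, 37C, 5% CO2. CellTiter-Fluor at 23 hr, 1 hr, fluorescence.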
# [7] = qHTS assay to identify small molecule agonists of the sonic hedgehog signaling (Shh) pathway - cell viability counter screen (AID 1259366); also: nearly all actives have a fitted effect of over 50% in size
# Outline: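 Viability measured fluorometrically (CellTiter-Fluor, 1hr, 37C) in 3T3 Gli1-Luc reporter cells after 23hr compound exposure within a 24hr incubation at 37C/5% CO2.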
# [8] = qHTS assay to identify small molecule antagonists of the sonic hedgehog signaling (Shh) pathway (AID 1259369; calls by dose curve; also: nearly all actives have a fitted effect of over 45% in size)
# Outline: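 NIH/3T3-derived Gli1-Luc reporter cells plated 4 h, dosed with compound, then stimulated with conditioned medium for 24 h at 37 C. Firefly luciferase luminescence read after 30 min with detection reagent at room temperature.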
# Potency is read from the fitted curve at half-maximal effect; tags tell the direction and shape of the fitted curve.
compound,measurement,setting,value
CN(Cc1cnc2nc(N)nc(N)c2n1)c1ccc(C(=O)N[C@@H](CCC(=O)O)C(=O)O)cc1,Potency,[1],"inconclusive: 0.386 µM [inhibitor, full curve]"
CC(CCc1ccc2c(c1)OCO2)NN (stereo not drawn),Potency,[1],inactive
CCC(O)OC(O)CC (stereo not drawn),Potency,[1],inactive
same,Potency,[2],inactive
O=C1c2ccccc2C(=O)N1CCc1noc(-c2ccc(CN3CCCCCC3)s2)n1,Potency,[1],"inconclusive: 62.9 µM [inhibitor, single point]"
CCC(O)C(C)(C)C (stereo not drawn),Potency,[1],inactive
O=C(Nc1ccc2c(O)c(N=Nc3ccc(N=Nc4ccc(S(=O)(=O)O)cc4)cc3)c(S(=O)(=O)O)cc2c1)c1ccccc1,Potency,[1],active: 27.3 µM
same,Potency,[3],"inconclusive: 19.3 µM [cytotoxic, partial curve]"
c1cc(OCC2CO2)cc(OCC2CO2)c1 (stereo not drawn),Potency,[4],active: 48.2 µM
same,Potency,[5],"inconclusive: 68 µM [inhibitor, partial curve, poor fit]"
same,Potency,[6],active: 60.6 µM
CC1COc2ccccc2N1C(=O)C(Cl)Cl (stereo not drawn),Potency,[1],"inconclusive: 30.6 µM [inhibitor, partial curve] and inconclusive: 48.5 µM [inhibitor, partial curve]"
same,Potency,[7],"inconclusive: 30.6 µM [cytotoxic, partial curve, poor fit]"
same,Potency,[6],"inconclusive: 21.6 µM [cytotoxic, partial curve] and inconclusive: 21.7 µM [cytotoxic, full curve]"
same,Potency,[8],"inconclusive: 8.62 µM [inhibitor, full curve, poor fit]"
Oc1c(I)cc(I)c2cccnc12,Potency,[1],"inconclusive: 33.5 µM [inhibitor, single point]"
same,Potency,[2],"inconclusive: 33.5 µM [activator, single point]"
same,Potency,[8],inconclusive: 13.3 µM [inhibitor]
C=C1CC[C@H](O)C/C1=C\C=C1/CCC[C@]2(C)[C@@H]([C@H](C)CCCC(C)C)CC[C@@H]12,Potency,[1],"inconclusive: 68 µM [inhibitor, single point]"
same,Potency,[7],"inconclusive: 68 µM [rising, partial curve]"
same,Potency,[6],"inconclusive: 68 µM [cytotoxic, partial curve, poor fit]"
CCSCC,Potency,[1],"inconclusive: 72.5 µM [inhibitor, single point]"
same,Potency,[7],"inconclusive: 72.5 µM [cytotoxic, single point]"
CCOc1ccc2[nH]cc(C(=O)NCc3ccccc3)c(=O)c2n1,Potency,[1],active: 54.5 µM
same,Potency,[6],inactive
same,Potency,[8],inconclusive: 9.69 µM [inhibitor]
O=C1OC(c2ccc(O)cc2)(c2ccc(O)cc2)c2ccccc21,Potency,[4],"inconclusive: 27.1 µM [inhibitor, partial curve, poor fit]"
same,Potency,[7],"inconclusive: 60.7 µM [cytotoxic, single point] and inconclusive: 54.5 µM [cytotoxic, partial curve]"
same,Potency,[6],"active: 54.1 µM and inconclusive: 54.5 µM [cytotoxic, partial curve] and inactive"
same,Potency,[8],active: 3.83 µM and active: 38.6 µM
CCCCC(CC)COP(=O)(O)O (stereo not drawn),Potency,[1],inactive
O=C1OC2(c3cc(Br)c(O)c(Br)c3Oc3c2cc(Br)c(O)c3Br)c2c(Cl)c(Cl)c(Cl)c(Cl)c21,Potency,[1],"inconclusive: 30.7 µM [inhibitor, partial curve] and inconclusive: 9.32 µM [inhibitor, partial curve]"
same,Potency,[3],"inconclusive: 18.6 µM [cytotoxic, partial curve, poor fit]"
same,Potency,[6],active: 3.86 µM and active: 14.8 µM
O=C1Cc2cc(Cl)ccc2N1,Potency,[1],"inconclusive: 1.06 µM [inhibitor, full curve]"
Nc1ccc(O)cc1,Potency,[1],active: 28.4 µM
same,Potency,[5],"inconclusive: 56.6 µM [inhibitor, partial curve, poor fit]"
same,Potency,[3],"inconclusive: 71.2 µM [cytotoxic, single point]"
same,Potency,[7],"inconclusive: 29.8 µM [cytotoxic, single point]"
same,Potency,[6],active: 31.8 µM
C=CCCC=C,Potency,[1],"inconclusive: 79.2 µM [inhibitor, single point]"
C[C@]12CC[C@@H]3c4ccc(O)cc4C[C@@H](CCCCCCCCCS(=O)CCCC(F)(F)C(F)(F)F)[C@H]3[C@@H]1CC[C@@H]2O (stereo partly drawn),Potency,[4],"inconclusive: 7.69 µM [inhibitor, full curve] and inconclusive: 5.7 µM [inhibitor, full curve]"
same,Potency,[8],"inconclusive: 3.06 µM [inhibitor, full curve] and inconclusive: 5.7 µM [inhibitor, partial curve]"
